The other results are listed elsewhere or left out. Cut-off read from the data, not from the text of the source: active = 3.2 or more and inactive = the rest. The signal is at background level for most entries.
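Note: displayed peptides selected on beads carrying the immobilized SH2 domain, with library peptides lacking any tyrosine serving as negative controls.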

One assay has as its target SHP2 C-SH2 domain E139D. Briefly: enrichment score (SH2-bound / input frequency) (ratio); bacterial display of known human phosphotyrosine sites (pTyr-Var adds point mutants) read by sequencing; higher = stronger binding; tyrosines were phosphorylated by kinases first. The conditions noted are these: peptide library: pTyr-Var.
For the molecule QKNVSYVSTVS [TASOR_Y1043], the enrichment score was inactive: 0.755.

Consider TVHCDYLNISH [TAF1L_Y1385_P1389S], for which the enrichment score is inactive: 1.84.

Regarding VTVLDYEKIGK [SYT1_Y365_D366E], the enrichment score is inactive: 1.13.

Regarding HRGCLYLAIEY [TEK_Y899_Y897C], the enrichment score is inactive: 0.399.

In the case of AFSLKYDQQTQ [SYTL4_Y366_E367D], the enrichment score is inactive: 1.2.

FKEVVYQAMEE [TACC3_Y684_E680K]: the enrichment score is inactive: 1.04.

Consider AFSLKYEQQTQ [SYTL4_Y366], for which the enrichment score is inactive: 0.802.

Consider EVEFEYPFRLH [SYP_Y73], for which the enrichment score is inactive: 0.972.

As for KFANSYIMEPL [TCTE3_Y87_R88I], the enrichment score is inactive: 0.829.

For SDFSSYARTSI [TERT_Y949_YF], the enrichment score is inactive: 0.747.

For the molecule APGNAYGDAGY [SYP_Y250_D248N], the enrichment score was inactive: 0.65.

As for LSPNMYNSKLW [TARSL2_Y457], the enrichment score was inactive: 1.02.

For NQELIYEGQRL [TBK1_Y354_R357Q], the enrichment score is inactive: 0.79.

Take EERKTYVNTTL [TEK_Y1102]: the enrichment score is inactive: 1.09.

Take YQEPVYSVAFS [TBL1X_Y509_H504Y]: the enrichment score was inactive: 0.905.

For the molecule DPHQQYFIAMD [TBX15_Y159_YF], the enrichment score is inactive: 0.85.

On to LSPNMYNSKFW [TARSL2_Y457_L461F], for which the enrichment score was inactive: 0.965.

On to DPNQQYFIAMD [TBX15_Y159_H156N_YF], for which the enrichment score was inactive: 0.641.

For PPSELYFVKVD [TERT_Y707_P704S], the enrichment score was inactive: 0.861.

The next assay deals with SHP2 C-SH2 domain wild-type. Described as above. The conditions noted are these: peptide library: pTyr-Var.
Take QKNVSYVSTVS [TASOR_Y1043]: the enrichment score is inactive: 0.805.

For the molecule TVHCDYLNISH [TAF1L_Y1385_P1389S], the enrichment score is inactive: 2.36.

Regarding VTVLDYEKIGK [SYT1_Y365_D366E], the enrichment score was inactive: 0.707.

Consider HRGCLYLAIEY [TEK_Y899_Y897C], for which the enrichment score was inactive: 0.876.

Turning to AFSLKYDQQTQ [SYTL4_Y366_E367D], the enrichment score is inactive: 1.18.

With FKEVVYQAMEE [TACC3_Y684_E680K], the enrichment score was inactive: 1.33.

In the case of AFSLKYEQQTQ [SYTL4_Y366], the enrichment score was inactive: 0.827.

Take EVEFEYPFRLH [SYP_Y73]: the enrichment score is inactive: 0.737.

As for KFANSYIMEPL [TCTE3_Y87_R88I], the enrichment score is inactive: 0.763.

For the molecule SDFSSYARTSI [TERT_Y949_YF], the enrichment score was inactive: 0.52.

For the molecule APGNAYGDAGY [SYP_Y250_D248N], the enrichment score is inactive: 0.454.

Consider LSPNMYNSKLW [TARSL2_Y457], for which the enrichment score is inactive: 0.877.

As for NQELIYEGQRL [TBK1_Y354_R357Q], the enrichment score was inactive: 0.647.

EERKTYVNTTL [TEK_Y1102]: the enrichment score is inactive: 1.22.

In the case of YQEPVYSVAFS [TBL1X_Y509_H504Y], the enrichment score was inactive: 0.916.

Turning to DPHQQYFIAMD [TBX15_Y159_YF], the enrichment score is inactive: 0.773.

Take LSPNMYNSKFW [TARSL2_Y457_L461F]: the enrichment score was inactive: 0.911.

Regarding DPNQQYFIAMD [TBX15_Y159_H156N_YF], the enrichment score is inactive: 0.649.

Consider PPSELYFVKVD [TERT_Y707_P704S], for which the enrichment score is inactive: 0.792.

The target in the next assay is SHP2 N-SH2 domain L43F. The description is as above. The following applies: peptide library: pTyr-Var.
Consider QKNVSYVSTVS [TASOR_Y1043], for which the enrichment score is inactive: 0.725.

With TVHCDYLNISH [TAF1L_Y1385_P1389S], the enrichment score is inactive: 1.58.

On to VTVLDYEKIGK [SYT1_Y365_D366E], for which the enrichment score was inactive: 0.985.

Regarding HRGCLYLAIEY [TEK_Y899_Y897C], the enrichment score was inactive: 0.628.

In the case of AFSLKYDQQTQ [SYTL4_Y366_E367D], the enrichment score is inactive: 1.23.

FKEVVYQAMEE [TACC3_Y684_E680K]: the enrichment score is inactive: 1.08.

For AFSLKYEQQTQ [SYTL4_Y366], the enrichment score was inactive: 0.825.

As for EVEFEYPFRLH [SYP_Y73], the enrichment score is inactive: 1.39.

Consider KFANSYIMEPL [TCTE3_Y87_R88I], for which the enrichment score was inactive: 0.877.

As to SDFSSYARTSI [TERT_Y949_YF], the enrichment score was inactive: 0.645.

Turning to APGNAYGDAGY [SYP_Y250_D248N], the enrichment score is inactive: 0.542.

Regarding LSPNMYNSKLW [TARSL2_Y457], the enrichment score is inactive: 0.84.

Consider NQELIYEGQRL [TBK1_Y354_R357Q], for which the enrichment score is inactive: 0.841.

In the case of EERKTYVNTTL [TEK_Y1102], the enrichment score is inactive: 1.09.

Regarding YQEPVYSVAFS [TBL1X_Y509_H504Y], the enrichment score is inactive: 1.1.

Consider DPHQQYFIAMD [TBX15_Y159_YF], for which the enrichment score was inactive: 0.833.

Turning to LSPNMYNSKFW [TARSL2_Y457_L461F], the enrichment score is inactive: 0.948.

Consider DPNQQYFIAMD [TBX15_Y159_H156N_YF], for which the enrichment score was inactive: 0.782.

Turning to PPSELYFVKVD [TERT_Y707_P704S], the enrichment score is inactive: 0.886.

The next assay addresses SHP2 N-SH2 domain T42A. The description is as above. The conditions noted are these: peptide library: pTyr-Var.
Regarding QKNVSYVSTVS [TASOR_Y1043], the enrichment score was inactive: 2.16.

For the molecule TVHCDYLNISH [TAF1L_Y1385_P1389S], the enrichment score was inactive: 2.23.

With VTVLDYEKIGK [SYT1_Y365_D366E], the enrichment score is inactive: 0.755.

HRGCLYLAIEY [TEK_Y899_Y897C]: the enrichment score was inactive: 0.595.

Turning to AFSLKYDQQTQ [SYTL4_Y366_E367D], the enrichment score was inactive: 1.17.

In the case of FKEVVYQAMEE [TACC3_Y684_E680K], the enrichment score was inactive: 1.13.

For the molecule AFSLKYEQQTQ [SYTL4_Y366], the enrichment score was inactive: 0.921.

Take EVEFEYPFRLH [SYP_Y73]: the enrichment score was inactive: 0.651.

Regarding KFANSYIMEPL [TCTE3_Y87_R88I], the enrichment score was inactive: 0.786.

Turning to SDFSSYARTSI [TERT_Y949_YF], the enrichment score is inactive: 0.572.

For APGNAYGDAGY [SYP_Y250_D248N], the enrichment score is inactive: 0.488.

Consider LSPNMYNSKLW [TARSL2_Y457], for which the enrichment score is inactive: 0.946.

Take NQELIYEGQRL [TBK1_Y354_R357Q]: the enrichment score is inactive: 0.713.

Turning to EERKTYVNTTL [TEK_Y1102], the enrichment score is inactive: 0.993.

For YQEPVYSVAFS [TBL1X_Y509_H504Y], the enrichment score was inactive: 0.747.

Turning to DPHQQYFIAMD [TBX15_Y159_YF], the enrichment score was inactive: 0.804.

Turning to LSPNMYNSKFW [TARSL2_Y457_L461F], the enrichment score was inactive: 1.31.

In the case of DPNQQYFIAMD [TBX15_Y159_H156N_YF], the enrichment score is inactive: 0.578.

Consider PPSELYFVKVD [TERT_Y707_P704S], for which the enrichment score is inactive: 0.673.

Another assay has as its target SHP2 N-SH2 domain T52S. The assay is described as above. The following applies: peptide library: pTyr-Var.
Take QKNVSYVSTVS [TASOR_Y1043]: the enrichment score is inactive: 0.587.

In the case of TVHCDYLNISH [TAF1L_Y1385_P1389S], the enrichment score was inactive: 1.68.

Regarding VTVLDYEKIGK [SYT1_Y365_D366E], the enrichment score was inactive: 0.88.

Consider HRGCLYLAIEY [TEK_Y899_Y897C], for which the enrichment score was inactive: 0.462.

For AFSLKYDQQTQ [SYTL4_Y366_E367D], the enrichment score is inactive: 1.25.

On to FKEVVYQAMEE [TACC3_Y684_E680K], for which the enrichment score was inactive: 0.969.

In the case of AFSLKYEQQTQ [SYTL4_Y366], the enrichment score was inactive: 0.827.

Turning to EVEFEYPFRLH [SYP_Y73], the enrichment score was inactive: 0.772.

Take KFANSYIMEPL [TCTE3_Y87_R88I]: the enrichment score is inactive: 0.757.

Take SDFSSYARTSI [TERT_Y949_YF]: the enrichment score was inactive: 0.466.

For APGNAYGDAGY [SYP_Y250_D248N], the enrichment score is inactive: 0.564.

On to LSPNMYNSKLW [TARSL2_Y457], for which the enrichment score was inactive: 0.86.

Turning to NQELIYEGQRL [TBK1_Y354_R357Q], the enrichment score was inactive: 0.658.

Take EERKTYVNTTL [TEK_Y1102]: the enrichment score is inactive: 1.04.

Regarding YQEPVYSVAFS [TBL1X_Y509_H504Y], the enrichment score was inactive: 0.939.

Consider DPHQQYFIAMD [TBX15_Y159_YF], for which the enrichment score was inactive: 0.865.

Consider LSPNMYNSKFW [TARSL2_Y457_L461F], for which the enrichment score is inactive: 1.01.

Regarding DPNQQYFIAMD [TBX15_Y159_H156N_YF], the enrichment score was inactive: 0.877.

In the case of PPSELYFVKVD [TERT_Y707_P704S], the enrichment score is inactive: 0.952.

The next assay addresses SHP2 N-SH2 domain wild-type. The assay is described as above. The following applies: peptide library: pTyr-Var.
Regarding QKNVSYVSTVS [TASOR_Y1043], the enrichment score is inactive: 0.84.

Regarding TVHCDYLNISH [TAF1L_Y1385_P1389S], the enrichment score is inactive: 1.9.

As to VTVLDYEKIGK [SYT1_Y365_D366E], the enrichment score is inactive: 1.19.

On to HRGCLYLAIEY [TEK_Y899_Y897C], for which the enrichment score is inactive: 0.51.

AFSLKYDQQTQ [SYTL4_Y366_E367D]: the enrichment score is inactive: 1.05.

With FKEVVYQAMEE [TACC3_Y684_E680K], the enrichment score was inactive: 1.

In the case of AFSLKYEQQTQ [SYTL4_Y366], the enrichment score was inactive: 0.962.

For the molecule EVEFEYPFRLH [SYP_Y73], the enrichment score was inactive: 0.856.

Consider KFANSYIMEPL [TCTE3_Y87_R88I], for which the enrichment score is inactive: 0.794.

As for SDFSSYARTSI [TERT_Y949_YF], the enrichment score was inactive: 0.613.

In the case of APGNAYGDAGY [SYP_Y250_D248N], the enrichment score is inactive: 0.687.

For the molecule LSPNMYNSKLW [TARSL2_Y457], the enrichment score was inactive: 0.602.

Consider NQELIYEGQRL [TBK1_Y354_R357Q], for which the enrichment score is inactive: 0.598.

As for EERKTYVNTTL [TEK_Y1102], the enrichment score is inactive: 0.958.

As to YQEPVYSVAFS [TBL1X_Y509_H504Y], the enrichment score was inactive: 1.17.

DPHQQYFIAMD [TBX15_Y159_YF]: the enrichment score is inactive: 0.97.

As to LSPNMYNSKFW [TARSL2_Y457_L461F], the enrichment score was inactive: 1.06.

As for DPNQQYFIAMD [TBX15_Y159_H156N_YF], the enrichment score is inactive: 0.838.

PPSELYFVKVD [TERT_Y707_P704S]: the enrichment score is inactive: 0.79.

(Values after the supplement of paper PMC10369915.)
